Data on 95 compounds can be found in PubChem BioAssay AID485344 (National Center for Advancing Translational Sciences (NCATS), 2010).

Screen size: about 340,000 compounds; about 6,900 (2%) were called active. No stated cut-off is given here; in the data, active means inhibition above about 30%; inactive means below that, where a call was filed. Only a part is listed here, and it is no random draw. Entries without a call were filed so in the source.

In the assay the target is D(2) dopamine receptor (Homo sapiens) (UniProt P14416). As to the kind of experiment: HTS Assay for Allosteric Antagonists of the Human D2 Dopamine Receptor: Primary Screen for Antagonists. Further: 0% is about no effect. The conditions noted are these: HEK293 TREx D2 cells, calcium flux, dopamine EC80; at 10 µM; stronger effect = higher value. An outline of the steps: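 Calcium mobilization kinetics were recorded at 1 s intervals in tetracycline-induced HEK293 T-REx D2 cells, first for 180 s after compound addition and then 180 s after EC80 dopamine.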
UniProt P14416, sequence (P14416 whole entry, looked up): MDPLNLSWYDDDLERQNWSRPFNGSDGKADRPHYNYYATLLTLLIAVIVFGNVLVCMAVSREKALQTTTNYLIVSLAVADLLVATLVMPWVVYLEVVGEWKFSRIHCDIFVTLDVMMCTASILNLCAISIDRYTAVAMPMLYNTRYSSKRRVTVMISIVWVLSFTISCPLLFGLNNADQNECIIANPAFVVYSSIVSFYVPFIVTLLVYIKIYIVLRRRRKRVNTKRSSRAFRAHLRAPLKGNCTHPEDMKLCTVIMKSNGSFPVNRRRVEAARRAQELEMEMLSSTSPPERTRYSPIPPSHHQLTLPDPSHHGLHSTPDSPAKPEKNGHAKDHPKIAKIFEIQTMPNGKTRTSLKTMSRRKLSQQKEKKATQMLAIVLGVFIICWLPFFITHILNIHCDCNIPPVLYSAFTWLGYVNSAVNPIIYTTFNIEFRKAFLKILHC
As a reminder, the inhibition is the change of the read-out against control, counted positive when it falls. Consider `COc1cc(C(=O)Nc2nnc(S(=O)(=O)N(C)c3ccccc3)s2)cc(OC)c1OC`, for which the inhibition is 5.42%.

As for `Cc1ccc(-c2nc3n(n2)C(c2ccccc2C)C=C(c2ccc(Cl)cc2)N3)cc1` (stereo not given), the inhibition was -2.89%.

Regarding `COc1cc(C(=O)NCC(c2ccc(N(C)C)cc2)N2CCc3ccccc32)cc(OC)c1OC` (stereo not given), the inhibition is 4.7%.

As for `COc1ccccc1CNC(=O)CS(=O)(=O)c1cccc2nsnc12`, the inhibition was 10.6%.

Turning to `COc1ccc(CNC(=O)c2cc3c(=O)[nH]c4ccc(C)cc4c3s2)c(OC)c1`, the inhibition came out at 5.62%.

With `COc1ccc(CCNC(=O)c2cc(-c3ccc(C)cc3)nc3n[nH]c(-c4ccccc4)c23)cc1OC`, the inhibition was determined as 27.9%.

Turning to `COc1ccc(OC)c(NC(=O)CCn2cnnn2)c1`, the inhibition came to 1.49%.

As for `Cc1ccc(C)c(N2CCN(C(=O)c3cc4ccc5cccnc5c4[nH]3)CC2)c1`, the inhibition is -7.23%.

As for `Cc1cc(C)cc(NC(=O)CN2C(=O)CSc3ccc(S(=O)(=O)N(C)C)cc32)c1`, the inhibition is 3.09%.

In the case of `Cc1ccc(OCC(=O)Nc2ccc(Cl)c(-c3nc4ncccc4o3)c2)cc1C`, the inhibition was -6.83%.

Regarding `CCOC(=O)c1c(C)oc2ncnc(Nc3ccc(F)cc3Cl)c12`, the inhibition was -4.09%.

Regarding `COc1ccc(-c2nsc(NC(=O)COc3ccc(C)c(C)c3)n2)cc1`, the inhibition was -4.74%.

Turning to `CCc1ccccc1NC(=O)C1(S(=O)(=O)c2ccc(Cl)cc2)CC1`, the inhibition stood at 21.2%.

With `COc1cc(O)c(C(CCN2CCN(c3ccccc3)CC2)c2ccc3c(c2)OCO3)c(OC)c1` (stereo not given), the inhibition is active: 75.2%.

As to `CCCCCNC(=O)c1c[nH]c2ccc(S(=O)(=O)N3CCC(C)CC3)cc2c1=O`, the inhibition worked out at 2.78%.

In the case of `CCC1CN(C(=O)NCc2ccc(C)cc2)c2cc(C)ccc2O1` (stereo not given), the inhibition came out at 14.5%.

Consider `Cc1nn(S(=O)(=O)c2ccc(C(C)C)cc2)c(C)c1S(=O)(=O)N1CCCCCC1`, for which the inhibition is -5.31%.

Consider `Cc1ccc(NC(=O)CSc2nc3ccccc3nc2Cc2ccccc2F)cc1F`, for which the inhibition stood at 10.2%.

With `COc1ccccc1CNC(=O)CCn1c(=O)c2ccccc2n(CC(=O)Nc2ccc(C)cc2)c1=O`, the inhibition was 0.457%.

With `Cc1cccc(CNC(=O)C2CCCN(S(=O)(=O)c3cn(C)cn3)C2)c1` (stereo not given), the inhibition worked out at 0.673%.

On to `CCCCCn1c(=O)[nH]c2cc(C(=O)Nc3cc(OC)cc(OC)c3)ccc2c1=O`, for which the inhibition is -7.62%.

As to `Cc1ccc2oc(=O)c3cc(C(=O)N4CCN(c5ccccc5)CC4)sc3c2c1`, the inhibition is 20.8%.

For the compound `CN(C)S(=O)(=O)c1ccc2c(c1)N(CC(=O)NCc1ccccc1)C(=O)C1CCCCN21` (stereo not given), the inhibition is -9.51%.

`COC(=O)c1cc2oc3ccccc3c2n1Cc1cccc(C)c1`: the inhibition is -12.3%.

As for `Cc1ccccc1CCNC(=O)c1ccc2c(c1)c(C)c(C)n2C`, the inhibition is 4.74%.

With `Cc1ncc([N+](=O)[O-])n1Cc1ccccc1F`, the inhibition is active: 31.5%.

Take `Cc1cccc(-c2nc(SCC(=O)Nc3cc(C)on3)c3c(=O)n(C)c(=O)n(C)c3n2)c1`: the inhibition was 6.78%.

For `COCCCNC(=O)c1ccc2c(c1)N=C(C)c1c(C)ccc(C)c1S2`, the inhibition was -8.54%.

Turning to `COc1ccc(N2CCN(c3ccc(-c4nc(-c5ccccc5C)no4)cc3[N+](=O)[O-])CC2)cc1`, the inhibition was 6.48%.

On to `Cc1nc2c(c(C)c1CCC(=O)Nc1cccc(C(F)(F)F)c1)c(=O)n(C)c(=O)n2C`, for which the inhibition is -7.04%.

On to `CC1CCCN(S(=O)(=O)c2cc3c(cc2Cl)NC(=O)CO3)C1` (stereo not given), for which the inhibition was 4.27%.

Consider `CC(=O)Nc1ccc(S(=O)(=O)N2CCCN(S(=O)(=O)c3ccc(C)cc3)CC2)cc1`, for which the inhibition is active: 30.7%.

Take `Cc1nnc(NC(=O)CSc2nccn2-c2cccc(Cl)c2)s1`: the inhibition was -10.4%.

`COc1cc(OC)c(Nc2nc3ccc(C)cc3n3nnnc23)cc1Cl`: the inhibition was -3.1%.

`COc1ccc(C(=O)Nc2ccccc2C(=O)OCc2cc(=O)n3c4c(sc3n2)CCCC4)cc1`: the inhibition is -9.44%.

In the case of `COc1ccc(-c2cc(=O)n3[nH]cnc3n2)cc1`, the inhibition was 5.01%.

As for `COc1ccccc1CNc1nc2nc(C)c(Cl)c(C)n2n1`, the inhibition stood at 19.3%.

For the compound `COC(=O)c1c(NC(=O)c2cccc(OC)c2)sc2c1CCC(C(C)(C)C)C2` (stereo not given), the inhibition amounted to 9.72%.

With `CCOc1ccccc1NC(=O)c1cn(C2CCCC2)c(=O)c2c1c1ccccc1n2C`, the inhibition is -22.2%.

As to `COc1ccccc1NC(=O)C1=C(C)Nc2nc(SCc3ccccc3)nn2C1c1ccccn1` (stereo not given), the inhibition is 9.81%.

`CCN(CC)S(=O)(=O)c1ccc2c(c1)N(CC(=O)NCCc1ccc(OC)c(OC)c1)C(=O)CO2`: the inhibition is -26.4%.

Take `COc1cc2[nH]c(C(=O)NCCc3ccccc3)cc2c(OC)c1OC`: the inhibition was active: 79.1%.

Consider `COc1ccc(-n2c(=O)c3sc4ccccc4c3n(CC(=O)Nc3cccc(C)c3)c2=O)cc1`, for which the inhibition is -18.8%.

Turning to `Cc1ccc(NC(=O)C(Cc2ccccc2)NS(=O)(=O)c2ccc3c(c2)oc(=O)n3C)c(Cl)c1` (stereo not given), the inhibition was -1.19%.

As for `COc1ccccc1NC(=O)c1cc(S(=O)(=O)N(C)C2CCCCC2)ccc1F`, the inhibition is -19.7%.

With `CC1=C(C(=O)Nc2ccccc2C)C(c2cccnc2)n2nc(SCc3ccccc3)nc2N1` (stereo not given), the inhibition was determined as 20.3%.

Consider `COCCNC(=O)Cn1cc(S(=O)(=O)Cc2ccccc2Cl)c2ccccc21`, for which the inhibition worked out at 9.66%.

Consider `CCOC(=O)N1CCc2c(sc3c2c(=O)n(CCc2ccccc2)c(=O)n3Cc2cc(C)ccc2C)C1`, for which the inhibition is -8.95%.

Turning to `O=C(Nc1cc(C(F)(F)F)ccc1Cl)C1CCN(c2nnc(-n3cccc3)s2)CC1`, the inhibition is active: 62.3%.

With `COc1ccc(OC)c(Nc2nc(-c3ccc(C)cc3)nc3ccccc23)c1`, the inhibition was -3.46%.

Regarding `O=C(CC1N=C2c3ccccc3N=C(SCc3ccc(Cl)cc3)N2C1=O)NCCc1ccccc1` (stereo not given), the inhibition is 15.2%.

On to `O=C(CSc1nnc(NC(=O)NC2CCCCC2)s1)Nc1ccccc1F`, for which the inhibition was -7.65%.

Turning to `CCOC(=O)c1c(C)[nH]c(C)c1S(=O)(=O)NCC(=O)Nc1cccc(C(F)(F)F)c1`, the inhibition is -12.7%.

For `CCOc1ccc(C2c3c(-c4ccc(C)cc4)n[nH]c3C(=O)N2c2ccc(Cl)cc2)cc1` (stereo not given), the inhibition was 7.16%.

Take `CC1CCCN(C(=O)Cn2c(=O)oc3cc(S(=O)(=O)N4CCCCC4)ccc32)C1` (stereo not given): the inhibition came to 10.4%.

Take `O=C(Nc1ccc(-c2cc(C(F)(F)F)nn2-c2ccccc2)cc1)c1cccc(F)c1`: the inhibition is -2.56%.

On to `CCOC(=O)c1c(NC(=O)c2cc(CC)on2)sc(C)c1C`, for which the inhibition is -7.47%.

As for `CCN(CC)c1ccc(C(=O)NCc2ccc3c(c2)CCN3C(=O)c2ccccc2)cc1`, the inhibition is -12.9%.

For `CCN1CCC(N(Cc2cccc(OC)c2)C(=O)Nc2cccc(C(F)(F)F)c2)CC1`, the inhibition was -14.3%.

On to `Brc1ccccc1-n1ncc2c1ncn1nc(Cc3ccccc3)nc21`, for which the inhibition is 17%.

Regarding `O=c1cc(CSc2ncn[nH]2)[nH]c2c(Cl)cccc12`, the inhibition is -2.27%.

Turning to `Cc1ccc2c(c1)N(C(=O)CCC(=O)Nc1ccccc1Cl)CC(C)O2` (stereo not given), the inhibition came out at 2.21%.

Turning to `COc1ccc(CNC(=O)CN(c2ccc(C)cc2)S(=O)(=O)c2c(C)n[nH]c2C)cc1`, the inhibition came out at 4.55%.

Consider `COc1ccc2oc(=O)c(-c3csc(/C(C#N)=C/c4ccc(F)cc4)n3)cc2c1`, for which the inhibition was -3.58%.

With `COc1ccc(CNC(=O)c2cc3c(-c4ccccc4F)nn(C)c3s2)c(OC)c1`, the inhibition turned out to be 3.76%.

For `COc1ccccc1N1CCN(C(=O)C2CCN(S(=O)(=O)c3cnc[nH]3)CC2)CC1`, the inhibition was -9.65%.

Take `CCOc1ccc(NC(=O)Cn2c(=O)n(-c3ccc(C)cc3)c(=O)c3cc(OC)c(OC)cc32)cc1`: the inhibition stood at 1.93%.

Turning to `Cc1ccc(/C=C(\C#N)C(=O)Nc2cc(C)ccc2C)cc1`, the inhibition was 20.8%.

As for `COc1cccc(NC(=O)Cn2cc(C(=O)C3CCCCC3)c3ccccc32)c1`, the inhibition came to 13%.

In the case of `CCOC(=O)c1c(NC(C)=O)c2c3c(sc2n1Cc1nc(-c2ccccc2OCC)oc1C)CCCC3`, the inhibition is -1.08%.

As for `COc1cccc(CNC(=O)CN2C(=O)N(c3cc(C)ccc3C)S(=O)(=O)c3ccccc32)c1OC`, the inhibition worked out at 12.9%.

Consider `Cc1ccc(C)c(CN2C(=O)c3ccccc3S(=O)c3ccc(C(=O)NCc4ccccc4Cl)cc32)c1` (stereo not given), for which the inhibition worked out at 0.375%.

As to `COc1cc(C)c(Cl)cc1S(=O)(=O)NCCc1c(C)[nH]c2ccccc12`, the inhibition is -6.19%.

Take `Cc1cccc(NC(=O)NCCn2c(=O)oc3ccc(C)cc32)c1`: the inhibition was -12.5%.

Turning to `COc1cccc(NC(=O)c2sc3nc(N4CCOCC4)c4c(c3c2N)CC(C)(C)OC4)c1`, the inhibition is -12.5%.

Consider `Cc1oc2c(c1C(=O)NCc1cccc(Br)c1)C1=NCCN1C=N2`, for which the inhibition is -18.5%.

As to `COc1ccccc1/C=C/C(=O)NCC(=O)N/N=C/c1cc(Br)ccc1OC`, the inhibition was active: 64.2%.

Regarding `CCOC(=O)Cn1c(=O)n(CC2CCCO2)c2nc(-c3ccc(OC)cc3OC)nc(C(N)=O)c21` (stereo not given), the inhibition is -9.97%.

With `Cc1ccc(CNC(=O)CCCn2c(=O)c3ccccc3n(CC(=O)C(C)(C)C)c2=O)cc1`, the inhibition worked out at 6.74%.

As to `Cc1nnc(N2CCN(C(=O)Nc3cc(F)ccc3F)CC2)c2nn(-c3ccc(Cl)cc3)c(C)c12`, the inhibition was -1.14%.

As to `CC(=O)Nc1ccc(NCc2nnc3n2CCCCC3)cc1`, the inhibition is -6.88%.

With `CCOC(=O)c1cc2c(=O)n3ccccc3nc2n(CC(C)C)c1=NC(=O)C(C)Oc1ccccc1` (stereo not given), the inhibition is -20.1%.

With `CCOc1ccc(NC(=O)CCS(=O)(=O)c2cc3c4c(c2)CCN4C(=O)CC3)cc1`, the inhibition was 8.47%.

With `CCc1ccccc1NC(=O)CCc1c(C)nc2cc(-c3ccccc3)nn2c1C`, the inhibition stood at 12.7%.

On to `COc1ccc(-c2nsc(NC(=O)c3ccccc3Br)n2)cc1`, for which the inhibition was -22.7%.

Consider `COc1cc(NC(=O)C2CCCN(S(=O)(=O)c3cn(C)cn3)C2)cc(OC)c1` (stereo not given), for which the inhibition was 15.9%.

As to `CC(CN1CCOCC1)OC(=O)c1ccc(C(C)(C)C)cc1` (stereo not given), the inhibition was active: 70.8%.

Take `CC(=O)N1CCc2c(sc3c2c(=O)n(CCc2ccccc2)c(=O)n3Cc2ccc(F)cc2)C1`: the inhibition was -6.78%.

As to `Cc1c(Cl)cccc1NC(=O)CSc1nc(=O)n(CCN2CCOCC2)c2c1CCC2`, the inhibition was -18.4%.

As for `Cc1ccccc1NC(=O)Cn1c(=O)n(CCCCCC(=O)NCc2ccc3c(c2)OCO3)c(=O)c2sccc21`, the inhibition came to 1.03%.

Consider `CCOc1ccc(NC(=O)c2sc3nc(-c4ccc(OC)cc4)cn3c2C)cc1`, for which the inhibition is -12.3%.

For the compound `COc1ccc(-n2ccn(CC(=O)Nc3ccccc3C(F)(F)F)c(=O)c2=O)cc1OC`, the inhibition came out at 20.6%.

Take `CCc1ccc(-n2c(CCC(=O)O)ccc2-c2cccs2)cc1`: the inhibition is -10.3%.

Turning to `O=C(Cn1c(=O)c2cccn2c2ccc(F)cc21)NCc1cccc(Cl)c1`, the inhibition was -19.7%.

Regarding `CC(C)N(Cc1ccccc1)S(=O)(=O)c1ccc(N2CCCCS2(=O)=O)cc1`, the inhibition is -0.0815%.
